In this assay the test system is Micrococcus luteus ATCC9431. The settings on record: compound isolated from S. globisporus mutant strain, M. luteus as testing organism. The text has this:
Escherichia coli DH5α was used as a general host for routine subcloning (Sambrook et al. (1989) Molecular cloning, a laboratory manual. Cold Spring Harbor Laboratory, Cold Spring Harbor, NY). E. coli XL 1-Blue MR (Stratagene, La Jolla, Calif.) was used as the transduction host for cosmid library construction. E. coli S17-1 was used as the donor host for E. coli-S. globisporus conjugation (Mazodier et al. (1989) J. Bacteriol. 171: 3583–3585). Micrococcus luteus ATCC9431 was used as the testing organism to assay the antibacterial activity of C-1027 (Hu et al. (1988) J. Antibiot. 41: 1575–1579). The pGEM-3zf, -5zf, and -7zf and pGEM-T vectors were from Promega (Madison, Wis.).
The production of C-1027 was detected by assaying its antibacterial activity against M. luteus (Hu et al. (1988) J. Antibiot. 41: 1575–1579). From liquid culture, fermentation supernant (180 μL) was added to stainless steel cylinders placed on LB plates pre-seeded with overnight M. luteus culture (0.01 % vol/vol). From solid culture, a small square block (0.5×0.5×0.5 cm^3) of agar from either R2YE or ISP-4 medium was directly placed on M. luteus-seeded LB plates. The plates were incubated at 37° C. for 24 hrs, and C-1027 production was estimated by measuring the size of inhibition zones.
Bioassay: The S. globisporus sgcC mutant strain was cultured under the identical conditions as the wild-type strain. […]

Like-named read-outs stand apart in the source and are kept apart here.

Turning to deshydroxy-C-1027 [compound 3], the “activity against M. luteus, inhibition zone on the bioassay plate” value is “clear inhibition zone”. Also, the “activity against M. luteus, inhibition zone on the bioassay plate” value (listed as deshydroxyl-C-1027) is on record as “active”.

The values above are taken from patent publication US7105491B2 (priority 1999, dated 2006).
